# Experimental data as given in article PMC7819943, “Rice protein-binding microarrays: a tool to detect cis-acting elements near promoter regions in rice”.
# The list shows a part of the results.
# Molecular target: T1, OsWOX13 (Oryza sativa, UniProt Q5QMM3 1-267)
# T1 sequence: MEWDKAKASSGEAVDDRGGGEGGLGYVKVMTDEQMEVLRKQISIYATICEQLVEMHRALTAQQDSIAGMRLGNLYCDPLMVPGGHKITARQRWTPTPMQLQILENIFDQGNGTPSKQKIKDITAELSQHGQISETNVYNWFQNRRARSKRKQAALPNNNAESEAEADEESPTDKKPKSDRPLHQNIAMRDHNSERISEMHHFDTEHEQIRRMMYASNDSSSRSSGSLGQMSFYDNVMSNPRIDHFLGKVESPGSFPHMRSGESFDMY
# Experiment: protein-binding microarray (RPBM); PBS, 2% BSA, 51.3 ng/ul salmon testes DNA, 50 uM zinc acetate, 200 nM TF, 25 C, 1 h; high values mean tight binding
# Details: protein: recombinant; tags: N-terminal polyhistidine and DsRed monomer fusion (pET32a); label: CyDye5-dUTP incorporated in the synthesized complementary strand; 3' TTTTT single-stranded linker to array surface; dsDNA, one strand shown
# How it was run: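 A custom Agilent array was converted to double-stranded form by primer extension with Cy5-dUTP and blocked with 2% BSA. Protein at 200 nM in PBS with 2% BSA, salmon testes DNA and 50 µM zinc acetate was applied for 1 h at 25 °C, followed by washing. The proteins were polyhistidine–DsRed N-terminal fusions of transcription factors, expressed in E. coli BL21-CodonPlus and Ni–NTA-purified. The binding signal is per-feature fluorescence intensity (arbitrary units) from an Axon 4000B scanner.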
row,Sequence,binding signal
1,GGTCTCCGTCCAAGTCAATTAGTCAAAATTATGCATCTAGCGGAGTCACCTAGTGCAG,10100 fluorescence intensity (a.u.)
2,AGAACAATTAACAGTTAACAGAAGCCAAGAAATGAAATGGCGGAGTCACCTAGTGCAG,17700 fluorescence intensity (a.u.)
3,CCAATTCAGTCATCCGTTTCCGATTTTGTTTCATGCAAATCGGAGTCACCTAGTGCAG,3280 fluorescence intensity (a.u.)
4,ATAAATACTTAATTAATCATATAATAAGAGAGACTTTATTCGGAGTCACCTAGTGCAG,12000 fluorescence intensity (a.u.)
5,TTCTGCGCTGTGATTGGTTGGAGCAGCTGCGCGCGGATCGCGGAGTCACCTAGTGCAG,24600 fluorescence intensity (a.u.)
6,CTTTGATTCGGCCTGTCAGCTGATGTTTGGTTCTTCCAAACGGAGTCACCTAGTGCAG,3210 fluorescence intensity (a.u.)
7,GGCTGCTTTGATTAACTCGATCATGAGTCAATGGACCATGCGGAGTCACCTAGTGCAG,6530 fluorescence intensity (a.u.)
8,GGGGATGAATTGATCACGCGGTGTGCGCTTTCTGATTCTGCGGAGTCACCTAGTGCAG,5930 fluorescence intensity (a.u.)
9,CTCTTAAATTGTGATTTCTGATGCTTCTCAAGCCAGACCACGGAGTCACCTAGTGCAG,21000 fluorescence intensity (a.u.)
10,GCTGGTGCATGATTGGTATTAGTATAGATATACAGTTCTGCGGAGTCACCTAGTGCAG,26100 fluorescence intensity (a.u.)
11,GCCTGCATTCATTTCCCTAATCAATCGGCTCGGATAATGTCGGAGTCACCTAGTGCAG,4450 fluorescence intensity (a.u.)
12,AGTAAATTGATTTAGGCATTTTAGTTCACCTATATTAGTGCGGAGTCACCTAGTGCAG,40900 fluorescence intensity (a.u.)
13,TGCTAATTTGATTGTTCATGGTGACAGCTGGAGCACTGGGCGGAGTCACCTAGTGCAG,37900 fluorescence intensity (a.u.)
14,GTGGTTACTTATTAACATATGGTTAATTAAGTATTATATTCGGAGTCACCTAGTGCAG,3640 fluorescence intensity (a.u.)
15,ATAACCACATCTTAATTAACTAAAATACTCACATTTTAGTCGGAGTCACCTAGTGCAG,5750 fluorescence intensity (a.u.)
16,TAGAGAGATTGATATTTCATGTGCTCTAGAGATGGTTGAGCGGAGTCACCTAGTGCAG,28900 fluorescence intensity (a.u.)
17,CATACTTCAGTGATTGAACCTAGGATTATAAACTCTAACTCGGAGTCACCTAGTGCAG,31500 fluorescence intensity (a.u.)
18,ATATCGTGATTATTACTCACCACACGTTGTACACAATGATCGGAGTCACCTAGTGCAG,14000 fluorescence intensity (a.u.)
19,AATTAATAGAATATCATTTTGTTGAATCCAGTAGCATACACGGAGTCACCTAGTGCAG,8540 fluorescence intensity (a.u.)
20,TTCCCCACCAATCTAATAGGTAAGATTTCTTAGAACAAGCCGGAGTCACCTAGTGCAG,3650 fluorescence intensity (a.u.)
21,ACCAAATTAGTGGCTGTACCGAACGTTATTAGCGCTTTAACGGAGTCACCTAGTGCAG,10500 fluorescence intensity (a.u.)

row,Sequence,binding signal
1,CTTTCTCCTGCTAATTTCTATCAACGGAAATTTCGCAAATCGGAGTCACCTAGTGCAG,4600 fluorescence intensity (a.u.)
2,TACTAGCTAAGTTTAATTAATTTCAAAATGCAAGCTGATCCGGAGTCACCTAGTGCAG,4170 fluorescence intensity (a.u.)
3,GAACGGAGGATGCTGAGCTCTCTTATGAGGTCTATTTTCCCGGAGTCACCTAGTGCAG,65100 fluorescence intensity (a.u.)
4,GTAAATTAACTGATGGTAGTACAAACAACACAAATCTGAACGGAGTCACCTAGTGCAG,43800 fluorescence intensity (a.u.)
5,TGAAATTATCATTTATTTATTTGTGACTTGATTTATCATCCGGAGTCACCTAGTGCAG,31400 fluorescence intensity (a.u.)
6,GGGCTGTTTAGTTTTGGATTGATTGAGCAATGTAATATAACGGAGTCACCTAGTGCAG,22200 fluorescence intensity (a.u.)
7,AGTTCAATTGCTTTGATGAGTGAGCAGAGAGATGATGCAGCGGAGTCACCTAGTGCAG,3420 fluorescence intensity (a.u.)
8,TTCCCAAATTATCTAACTTGGTCTAGACTAGAGGCAACCACGGAGTCACCTAGTGCAG,5560 fluorescence intensity (a.u.)
9,GTTAGATAGAATGGTAACACAGACTGACATATACACAAGACGGAGTCACCTAGTGCAG,20900 fluorescence intensity (a.u.)
10,TCGACTAATTTATGAGACAAATATTTTAAGACTAATTGCTCGGAGTCACCTAGTGCAG,31700 fluorescence intensity (a.u.)
11,GAAATAGATCGTCCCAATTAACTAACTAAACCACTGTAAACGGAGTCACCTAGTGCAG,9720 fluorescence intensity (a.u.)
12,ATTGATTTCTGATATGTTGAGCAAGGGCATTCCTCCTCCTCGGAGTCACCTAGTGCAG,10900 fluorescence intensity (a.u.)
13,CCAAAATTGCTCCGACATATATTGATCTTGGCAAAGTTACCGGAGTCACCTAGTGCAG,5880 fluorescence intensity (a.u.)
14,GGAGGTTGACAGAAAACTGGATGGAAGTGGCATGGTTCCACGGAGTCACCTAGTGCAG,5700 fluorescence intensity (a.u.)
15,TCTATATTAATTATGATTTTGTTCGAAGATAAGTAATTATCGGAGTCACCTAGTGCAG,18900 fluorescence intensity (a.u.)
16,CTCATGTGAATGATTTGTCTGCATTGCTAGGTTGTGTCAGCGGAGTCACCTAGTGCAG,7510 fluorescence intensity (a.u.)
17,GTAATTGGTAAACTGATACTAATATGATCCATATGGTCCACGGAGTCACCTAGTGCAG,34000 fluorescence intensity (a.u.)
18,CGCCAGGTCCAAGCACCGTTGATTGCTTCAGTGTCCGTCACGGAGTCACCTAGTGCAG,3880 fluorescence intensity (a.u.)
19,TGAACTGGACCTAATCAACCAGTAATCACTGGACAGAAAACGGAGTCACCTAGTGCAG,3290 fluorescence intensity (a.u.)
20,TTATGATATGTATCCAATCAAAATAAGATGAAGAGACTATCGGAGTCACCTAGTGCAG,10100 fluorescence intensity (a.u.)
21,ATTATATCTTTCAATCATTTGATTTGATTTTCTTTCCCATCGGAGTCACCTAGTGCAG,19000 fluorescence intensity (a.u.)
